Laboratory results as given in the supplement of paper PMC10338343.
± gives the standard deviation. This is a selection; strong and weak results do not stand in their true shares.

Tested on: MIWI (PIWIL1) piRISC loaded with piRNA #1 (30 nt)
Assay: pre-steady-state target cleavage rate (min^-1); MIWI and MILI are mouse PIWI proteins and EfPiwi is from a freshwater sponge; tags in brackets are library labels; higher = faster piRNA-guided slicing of the target
Conditions: guide: piRNA #1 5'p-UGAGGUAGUAGGUUGUAUAGUAUCCAGAGG; auxiliary factor: 500 nM mouse GTSF1
Summary of the method: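 Cleave-'n-Seq: 1 nM active affinity-purified piRISC with one synthetic guide and 0.1 nM transcribed, DNA-blocked target RNA library were mixed, with or without 500 nM GTSF1 partner protein, in HEPES–potassium acetate buffer at 33 °C for 0–8 or 0–960 min. Uncleaved targets were sequenced and normalised to depth and to weakly complementary targets, three trials were pooled, and k3 was capped at 0.0001 min^-1. The pre-steady-state cleavage rate was fitted […].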

Sequence | pre-steady-state target cleavage rate
CCUCUGAAUACUAUACAACCUACUACCUCA | 2.09 ± 0.13
GGACUGGAUACUAUACAACCUACUACUCUCA | 1 ± 0.091
GCUCUGGAUACUAUACUACCUACUACCUGA | 0.928 ± 0.12
GGAGUGGAUACUAUACUACCUACUACCACA | 0.757 ± 0.08
GCUGUGGAUACUAUACAAGCUACUACCUCA | 1.16 ± 0.062
GGACUGGAUACUAUACAACCUACUACCUCCA | 2.19 ± 0.17
GGUCUGGAUACUAUACAACGAUCUACCUCA | < 0.0001
GGAGACCUUACUAUACAACCUACAUGGAGA [g8:g22:cont:t1A] | 0.015 ± 0.0043
GGAGACGAUACUUUAGAACCUACUACCUCA | 0.996 ± 0.052
GGACUGGUUACUAUACAACCUUCUACCUCA | 0.625 ± 0.056
GGAGUGGAUACAAUACAUCCUACUACCUCA | 0.837 ± 0.048
GGAGAGGAUACUUUACAACCUACUACCACA | 0.579 ± 0.051
CCACUGGAUACUUUACAACCUACUACCUCA | 1.99 ± 0.12
GGAGAGGAUAGUAUAGAACCUACUACCUCA | 0.231 ± 0.043
CCUCUGGAUACUUUAGAACCUACUACCUCA | 1.09 ± 0.069
GGACUGGAUACAAUACAACCUACUACCACA | 0.634 ± 0.056
GGAGACCUAUGUAUACAACCUACUAUCCUCA | 0.078 ± 0.01
GGAGUGGAUUCUAUACAACCUACUAGCUCA | 0.148 ± 0.026
GGAGACCUAACUAUUCAACCUACUACCACA | 0.245 ± 0.032
GCUCUGGAUACUAGUACAACCUACUACCUCA | 1.58 ± 0.11
GGAGACCUAUGAUAUGUUCCUACUACCGUCA | < 0.0001
CGAGUGGAUACUAUACAACCUACUACCUCA | 1.84 ± 0.09

Sequence | pre-steady-state target cleavage rate
GGAGAGGAUACAAUACAACCUACUACCUGA | 0.294 ± 0.029
CCUCUGGAUACAAUACAACCUACUAGCUCA | 1.24 ± 0.08
GGAGUGGAUACUAUACAACCUAGCUACCUCA | 0.217 ± 0.022
CCUCUGCAUACUAUAGAACCUACUACCUCA | 0.979 ± 0.051
GGAGACCUAUCUAAACAUCCUACUACCUCA | 0.0166 ± 0.0047
GGUCUGGAAUGUAUACAACCUACUACCUCA | 0.592 ± 0.046
GGAGACCUUACUAUACAACCUACUACGUGA | 0.675 ± 0.064
GCUCUGGAUACUAUUCAACCUACUACCUCA | 1.87 ± 0.11
GGACUGGAAACUAUACAACCUACUACGUCA | 0.355 ± 0.053
GCUGUGGAUACUAUACAACCUACUACCUCA | 1.9 ± 0.11
GGACUGGAUUCUAUACAACCUACUACCUGA | 0.628 ± 0.13
GGAGUGGUUACUAUUCAACCUACUACCUCA | 1.55 ± 0.11
GGAGAGGAUACUAUACAACCUCACUACCUCA | 0.00419 ± 0.0025
GGAGACCUUACUAUACUACCUACUACCUCA | 0.613 ± 0.045
GGUCUGGUUACUAUACAACCUACUUCCUCA | 0.0468 ± 0.014
GGACUGGAUACUAUACAACCUAGUACCUCA | 0.432 ± 0.073
GGAGACCUUACUAUACUAACCUACUACCUCA | < 0.0001
GGAGAGGAUACUAUACAAGCUUCUACCUCA | 0.118 ± 0.012
GGAGACCUUAGUAUAGAACCUACUACCUCA | 0.394 ± 0.063
GGACUGGAUACUAUACAGCCUACUACCUCA | 0.707 ± 0.034
GGACUGGAUACUAUUGAACCUACUACCUCA | 0.347 ± 0.04
CCUCUGGUUACUAUACAACCUACUACGUCA | 1.18 ± 0.092

Sequence | pre-steady-state target cleavage rate
GGACUGGAUACUAUACAACCUACGACCUCA | 0.37 ± 0.047
GGUCUGGAUACUAUACAACCUUACUACCUCA | 0.00317 ± 0.0022
GGAGACCUAACUAUACAAUCUACUACCUCA | 0.165 ± 0.016
GGACUGGAUACUAUAACAACCUACUACCUCA | 1.49 ± 0.14
CCACUGGAUACUAUACAACCUACUUCCUCA | 0.689 ± 0.047
GGACACCAUACUAUACAACCUACUACCUCA | 1.38 ± 0.1
CCUCUGGAUACAAAACAACCUACUACCUCA | 1.34 ± 0.13
GGAGAGGAAACUAUACAACCUACUACCUCA | 1.36 ± 0.08
GCUCUGGAUAGUAUACAAGCUACUACCUCA | 0.772 ± 0.05
GGAGAGGAUUCUAUACAACCUAGUACCUCA | 0.372 ± 0.044
GGACUGGAUACUAUACUAGCUACUACCUCA | 0.453 ± 0.049
GGAGACGAAACUAUAGAACCUACUACCUCA | 0.962 ± 0.05
GGAGACCUAUGAUAUGUUCCUACUACCUGA | < 0.0001
GGAGACCAUACUAUACCAACCUACUACCUCA | 0.0103 ± 0.0029
GGAGAGGAUAGUAUACAACCUACAACCUCA | 0.213 ± 0.03
GGAGACCAUACUAUACUACCAACUACCUCA | 0.00977 ± 0.0019
GGAGACCAUACUAUACAACCUUGUACCUCA | 0.0248 ± 0.0046
GGAGACCUAUGAUUAAAACCUACUACCUCA | < 0.0001
CCUCUGGAUACUAAACAACCUAGUACCUCA | 0.0925 ± 0.023
GGUCGGAUACUAUACAACCUACUACCUCA | 1.62 ± 0.12
GCACUGGAUACUAUACAAGCUACUACCUCA | 1.32 ± 0.064
GGAGACGAUACGUAUACAACCUACUACCUCA | 1.4 ± 0.13
